# Measurements taken from PubChem BioAssay AID1794842 (National Center for Advancing Translational Sciences (NCATS), 2023).
# Fewer than 10 of roughly 2,800 compounds were called active. Calls come from the whole dose curve; as a rule, active = well fitted curve in the direction sought with a large enough effect; inconclusive = small, poorly fitted or top-dose-only effect, or another doubt; inactive = no such curve, though single readings can be large or run the other way. The list shows a part of the results.
# Target: Metallo-beta-lactamase type 2 (Klebsiella pneumoniae) (UniProt C7C422)
# Sequence of UniProt C7C422 (C7C422 whole entry, looked up): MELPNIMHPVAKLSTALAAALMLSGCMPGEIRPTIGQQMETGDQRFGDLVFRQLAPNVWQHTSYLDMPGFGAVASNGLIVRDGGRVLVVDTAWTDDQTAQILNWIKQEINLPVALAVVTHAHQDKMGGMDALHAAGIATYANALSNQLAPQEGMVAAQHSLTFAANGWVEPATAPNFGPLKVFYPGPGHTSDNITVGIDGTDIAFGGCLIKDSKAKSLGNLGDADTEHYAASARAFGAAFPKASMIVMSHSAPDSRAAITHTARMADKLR
# Assay: qHTS to identify inhibitors of the New Delhi Metallo-beta-lactamase (NDM): Meropenem screen against the machine-based learning selections. Note: % of control where 0% means no effect.
# Conditions: Purified NDM-1, meropenem hydrolysis, absorbance 300 nm; at 38.4 µM (top of the series) unless noted
# Method in brief: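 NDM-1 (2 nM final) in 50 mM HEPES pH 7.0, 1 uM Zn2SO4, 0.01% Tween20 was preincubated with compounds for >30 min. Nitrocefin (16.7 uM final) was read at 485 nm after 15 min, and meropenem (50 uM final) at 300 nm after 30 min.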
row,Compound,"activity change, negative = inhibition"
1,Cc1cc(-c2cc3c(cn2)CN(Cc2ccc4[nH]ccc4c2)CCN3)ccn1,inactive: -1.79% [at 57.5 µM]
2,CN(C(=O)c1cc2ccccc2n1C)C1CCCN(C2Cc3ccccc3C2)C1 (stereo not drawn),inactive: 0.817%
3,Nc1cncc(-c2nccc(N3CCC(O)CC3)n2)c1,inactive: 62.2%
4,Cc1noc(C2CC3(CCN(C(=O)C4CCC4)CC3)CN2C)n1 (stereo not drawn),inactive: 1.47%
5,COCCNC(=O)C[C@@H]1O[C@H](CNC(=O)c2cccc(F)c2)[C@@H](O)[C@H]1O,inactive: -5.31% [at 57.5 µM]
6,CSCC(=O)N1CC[C@H](NC(=O)Nc2ccc(F)cc2F)[C@H]1C(=O)N[C@@H](Cc1cccs1)C(N)=O,inactive: -0.628%
7,Cc1noc2c(N3CC(O)C3)cc(-c3ccsc3)nc12,inactive: 10.5% [at 76.7 µM]
8,O=C(N[C@H]1CCN2C(=O)c3ccccc3NC(=O)[C@@H]2C1)c1ccccc1,inactive: 0.0244% [at 57.5 µM]
9,OC1(c2nc(Nc3ccc(Oc4ccccc4)cc3)n[nH]2)CCOCC1,inactive: 40.1% [at 57.5 µM]
10,CCc1ccc(CNC(=O)c2ccc3c(c2)N(C)C2CCCCN2C3=O)cc1 (stereo not drawn),inactive: -0.597%
11,COc1ccc(Cl)cc1-c1ccc2c(c1)C(=O)N1CCN(C(=O)CO)C[C@@H]1C(=O)N2,inactive: 21.9% [at 57.5 µM]
12,COCCO[C@H]1C(=O)N(C2CCN(C(=O)c3cnccn3)CC2)[C@H]1c1ccncc1,inactive: 0.176%
13,COC(=O)N1CCCC(c2nn(-c3ccc(OC)cc3)c(=O)[nH]2)C1 (stereo not drawn),inactive: 3.69% [at 57.5 µM]
14,CCCC1(CO)CCCN(Cc2ccc(OCC(=O)N3CCCC3)cc2)C1 (stereo not drawn),inactive: -3.09%
15,CC1(C(=O)NCc2cccnc2)CCCc2cnc(Nc3ccccc3)nc21 (stereo not drawn),inactive: -1.69% [at 57.5 µM]
16,CC[C@H]1CN(C(=O)NC(C)C)CC[C@H]1CC(=O)N(C)CCC#N,inactive: -1.97% [at 57.5 µM]
17,O=c1c2nc(-c3cccc(O)c3)ccc2ncn1Cc1ccccn1,inactive: 13.6% [at 57.5 µM]
18,O=c1c2nc(NCc3ccccc3)ccc2ncn1Cc1ccccc1,inactive: 9.65% [at 57.5 µM]
19,Cc1ccc2c(n1)N(C)[C@H](CO)CCN(Cc1ccc(Cl)cc1)C2,inactive: -1.68% [at 57.5 µM]
20,c1c(CC2CCCCC2)nnn1[C@H]1CO[C@H]2[C@@H]1OC[C@@H]2NCC1CCCCC1,inactive: -1.06% [at 57.5 µM]
21,Cc1ccc2nc(C3CCN(Cc4ccc(-c5cccs5)cc4)CC3)[nH]c(=O)c2c1,inactive: 9.14%
22,CC(=O)NC[C@@H]1C=C(C)[C@H](CC(=O)N(C)Cc2ccccc2)C[C@H]1C(C)C,inactive: 6.37% [at 57.5 µM]
23,Cc1ccc2nc(C3CCCN(Cc4ccccc4)C3)[nH]c(=O)c2c1 (stereo not drawn),inactive: -0.317% [at 57.5 µM]
24,CN1[C@@H](CCC(=O)N2CC[C@@H](O)C2)CNC(=O)[C@@H]2[C@H]1CCN2C1CCOCC1,inactive: -4.43% [at 57.5 µM]

row,Compound,"activity change, negative = inhibition"
1,Cc1ccc(S(=O)(=O)N(C)CC2CCOC2)cc1F (stereo not drawn),inactive: 3.62%
2,OC(c1nc(Nc2ccc(N3CCOCC3)cc2)n[nH]1)C1CC1 (stereo not drawn),inactive: 48.7% [at 57.5 µM]
3,CNC(=O)C1(N2CCC[C@H]2C(=O)NC(C)C)COC1,inactive: -1.65% [at 76.7 µM]
4,O=C(O)c1ccc([S+](=O)([O-])N2CC(COc3ccccc3)C3(CN(c4ccccc4)C3)C2)cc1 (stereo not drawn),inactive: 1.65%
5,CCn1cnnc1CCNC(=O)c1cc(-c2ccc(C)cc2)nc2ccccc12,inactive: -0.957%
6,CC(C)(C)C(=O)N1CCC2(C1)C(=O)N(CCc1ccccc1)c1ccccc12 (stereo not drawn),inactive: -1.91%
7,CN1CCCC2(C1)CN(Cc1cccnc1)c1ccc(C(=O)Nc3ccc(F)cc3)cc12 (stereo not drawn),inactive: 3.28% [at 57.5 µM]
8,O=C(c1cccc2cnccc12)N1CCC2(CC1)Nc1ccccc1NC2=O,inactive: 1.39%
9,CC(C)(C)CC(=O)N1CCC(C(NC(=O)c2ccccc2Cl)C(=O)N2CCCCC2)CC1 (stereo not drawn),inactive: -4.52%
10,O=C(O)C[C@@H]1CCN(C(=O)C2CCCCC2)C[C@@H]1CCN1CCN(c2ccccn2)CC1,inactive: 18.4%
11,Cc1ccc(NC(=O)N2CCCC(c3nccn3Cc3ccncc3)C2)cc1C (stereo not drawn),inactive: 0.303%
12,c1ccc(-c2cn3c(n2)CO[C@@H](CNCc2ccc4ccccc4n2)C3)cc1,inactive: 23.8% [at 57.5 µM]
13,COC[C@]1(O)CCN(C(=O)CSCc2ccccc2C)CC1(C)C,inactive: -2.58%
14,COCCn1nc2n(c1=O)CCN(S(=O)(=O)c1ccc(Cl)s1)CC2,inactive: -3%
15,CC(C)CCNC(=O)c1cccnc1N1CC2CC(C1)[C@H]1CCCC(=O)N1C2 (stereo partly drawn),inactive: -1.13%
16,O[C@H]1[C@H](NCC2CCCCC2)[C@H]2CO[C@H](O2)[C@@H]1N1CCC(Cc2ccccc2)CC1,inactive: -2.59% [at 57.5 µM]
17,CN1CC2(CCN(C(=O)c3ccccc3-c3nn[nH]n3)CC2)CC1C(=O)O (stereo not drawn),inactive: 57.1%
18,COCCNS(=O)(=O)c1cc(C(=O)O)cc(-c2cccc(C(C)N(C)C)c2)c1 (stereo not drawn),inactive: -0.0026%
19,CC1=C[C@@H](CNC(=O)C2CCCCC2)[C@H](C(C)C)C[C@H]1CC(=O)N1CCN(c2ccccn2)CC1,inactive: 0.957%
20,C#CCNC(=O)C[C@@H]1C[C@@H](C(C)C)[C@H](CNS(C)(=O)=O)C=C1C,inactive: -2.46% [at 57.5 µM]
21,O=C(C[C@@H]1CCNC[C@@H]1Cc1cc(CN2CCOCC2)on1)N1CCC(Cc2ccccc2)CC1,inactive: -1.24%
22,CCc1noc(-c2ccn3c(CNC(=O)c4ccc(OC)c(F)c4)nnc3c2)n1,inactive: -2.08%
23,COC(=O)[C@@H]1Cc2ncn(Cc3ccc(Cl)cc3)c2CN1Cc1ccc(C(=O)O)cc1,inactive: 8.42%
24,CCNC(=O)N[C@H]1CO[C@H]2[C@@H]1OC[C@@H]2Nc1nccc(-c2ccc(OC)cc2)n1,inactive: 8.25% [at 57.5 µM]
